Hit rate of the full screen: of about 310,000 compounds, about 14,000 (4.5%) showed an effect of 50% or more. The effect is printed as a negative number. Some of the results follow.
The compounds below were run against human ether-à-go-go-related gene (hERG) potassium channel (human, UniProt Q12809) (assay: primary screen, population patch clamp on CHO cells stably expressing hERG).
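Note: peak tail current of the secondary pulse compared with the same well before compound.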

Sequence of human ether-à-go-go-related gene (hERG) potassium channel (Q12809 whole entry, looked up): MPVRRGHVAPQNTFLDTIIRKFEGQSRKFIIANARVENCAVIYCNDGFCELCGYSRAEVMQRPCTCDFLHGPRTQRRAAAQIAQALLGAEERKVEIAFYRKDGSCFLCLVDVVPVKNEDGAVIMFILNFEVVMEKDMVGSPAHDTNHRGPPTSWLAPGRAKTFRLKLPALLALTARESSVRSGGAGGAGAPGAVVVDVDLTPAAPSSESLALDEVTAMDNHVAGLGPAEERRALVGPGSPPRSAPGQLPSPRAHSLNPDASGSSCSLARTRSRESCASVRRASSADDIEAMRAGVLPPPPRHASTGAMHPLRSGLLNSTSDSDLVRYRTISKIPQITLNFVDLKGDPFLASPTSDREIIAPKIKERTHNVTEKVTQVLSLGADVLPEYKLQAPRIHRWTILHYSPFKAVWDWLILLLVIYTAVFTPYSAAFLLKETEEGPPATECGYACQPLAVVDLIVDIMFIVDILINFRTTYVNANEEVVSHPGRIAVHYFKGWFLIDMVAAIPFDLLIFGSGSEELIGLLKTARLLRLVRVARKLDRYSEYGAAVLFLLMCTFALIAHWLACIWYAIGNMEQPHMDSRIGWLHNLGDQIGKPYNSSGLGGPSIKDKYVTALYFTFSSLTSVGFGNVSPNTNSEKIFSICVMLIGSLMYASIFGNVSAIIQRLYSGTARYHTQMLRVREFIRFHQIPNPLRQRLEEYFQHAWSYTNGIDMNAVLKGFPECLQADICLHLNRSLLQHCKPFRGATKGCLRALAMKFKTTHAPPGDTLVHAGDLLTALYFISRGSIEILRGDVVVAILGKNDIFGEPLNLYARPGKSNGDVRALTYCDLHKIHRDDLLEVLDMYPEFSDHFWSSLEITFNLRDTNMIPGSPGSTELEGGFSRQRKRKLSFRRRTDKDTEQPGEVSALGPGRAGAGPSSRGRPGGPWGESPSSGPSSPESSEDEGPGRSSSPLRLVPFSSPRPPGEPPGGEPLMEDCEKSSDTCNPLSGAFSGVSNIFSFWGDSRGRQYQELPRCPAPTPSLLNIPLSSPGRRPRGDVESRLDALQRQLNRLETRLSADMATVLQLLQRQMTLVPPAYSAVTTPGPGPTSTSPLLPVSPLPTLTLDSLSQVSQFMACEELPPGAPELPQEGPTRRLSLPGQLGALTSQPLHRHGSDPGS

| Compound | hERG current change (%, negative = inhibition) at 10uM [%] |
| --- | --- |
| COc1ccc(OCCCC(=O)OCC(=O)c2ccc3c(c2)NC(=O)CO3)cc1 | 15.7 |
| COc1ccccc1N1CCN(C(=O)C(C)N(c2ccc(C)cc2)S(C)(=O)=O)CC1 (stereo not drawn) | -8.26 |
| CC(C)=CCN1CCN(Cc2cccnc2)CC1CCO (stereo not drawn) | -1.24 |
| CC(=O)c1ccc(S(=O)(=O)N2CCc3ccccc3C2)cc1 | 12 |
| O=S(=O)(NCc1ccc2c(c1)OCO2)c1ccc(F)c(F)c1 | -12.9 |
| COCCNC(=O)C1CC2Cn3c(nc4cc(C)c(C)cc43)C2N1C (stereo not drawn) | 8.23 |
| CC1(C)NC(=O)N(CCOCCSc2ccccc2)C1=O | -2.95 |
| O=C(Cc1c(F)cccc1Cl)NCc1cccnc1 | 17.7 |
| CCN1CCN(C(=O)c2c(-c3ccccc3)noc2C)CC1 | 9.72 |
| CCCN(CC(=O)Nc1ccccc1C)C(=O)c1ccc2ccccc2n1 | 2.67 |
| CCOC(=O)C1=C(C)OC(N)=C(C#N)C1c1cncc(-c2ccc(F)cc2)c1 (stereo not drawn) | -36 |
| CCOC(=O)CCCNC(=O)COC(=O)c1cc2ccccc2cc1O | -3.46 |
| COc1ccc(-c2noc(CN(C)S(=O)(=O)c3ccc(Cl)cc3)n2)cc1OC | -9.85 |
| CC1CC(C)(C)NCc2ccccc21.Cl (stereo not drawn) | 9.07 |
| Cc1ccc(CNC(=O)NCc2ccccc2)cc1 | 9.2 |
| C=CCOc1cccc(CNc2ccc3[nH]c(=O)[nH]c3c2)c1 | 2.07 |
| Cc1ccc2nc(C)c(C(=O)N/N=C/c3ccc(N4CCOCC4)cc3)cc2c1 | -9.11 |
| Cc1ccc(S(=O)(=O)N(CC(=O)N2CCC(C)CC2)c2cccc(C)c2)cc1 | -55.1 |
| CCOC(=O)CN1N=C(c2ccc(Cl)s2)CSC1=O | 11.5 |
| Cn1c(=O)c(=O)n(C)c2cc(S(=O)(=O)NCCOc3ccccc3Cl)ccc21 | 1.26 |
| CCOC(=O)N1CCN(C(=O)CSCC(=O)Nc2nc(-c3ccc(Cl)s3)cs2)CC1 | -19.6 |
| COc1cc2c(cc1OC)C(C1c3cc4c(cc3CCN1C)OCO4)OC2=O (stereo not drawn) | 4.1 |
| COc1cccc(CN2CCN(C(=O)Nc3ccc([N+](=O)[O-])cc3)CC2)c1 | -57.2 |

| Compound | hERG current change (%, negative = inhibition) at 10uM [%] |
| --- | --- |
| COc1ccccc1NC(=O)c1ccc(NC(=O)CNC(=O)c2ccc(OC)c(OC)c2)cc1 | -7.26 |
| COc1ccc(C2CCN(Cc3cccnc3)CC2O)cc1 (stereo not drawn) | -2.49 |
| Cn1c2ccccc2c(=O)c2cc(C#Cc3ccccn3)ccc21 | -0.776 |
| Cc1ccc(C(=O)C2=C(O)C(=O)N(Cc3cccnc3)C2c2cccc([N+](=O)[O-])c2)o1 (stereo not drawn) | -9.76 |
| CC(=O)c1ccc(Nc2nc(C)cc(C)n2)cc1 | 4.62 |
| COC(C/C=C\C(=O)COCc1ccccc1)OC | 10.3 |
| Cc1ccc2c(c1)=NC(=O)/C(=C/c1c(O)[nH]c(=O)[nH]c1=O)C=2 | 11.8 |
| CCOC(=O)c1c(C)oc2ccc(OCC(=O)N(CC)CC)cc12 | -8.1 |
| COc1cc(NC(=O)C2CC2C)c(C(=O)O)cc1OC (stereo not drawn) | 10.1 |
| CCOC(=O)N1CCN(C/C(C)=C/c2ccccc2)CC1 | -25.1 |
| Cc1ccccc1NC(=O)CN1C(=O)N/C(=C\c2ccc(N3CCOCC3)c(F)c2)C1=O | 10.8 |
| Cc1cc(C(F)F)n2ncc(C(=O)O)c2n1 | -2.47 |
| Cc1cc(=S)c2ccccc2[nH]1 | 14.9 |
| Cc1nc(C(=O)N2CCCC(C(=O)c3ccc(Cl)cc3)C2)cs1 (stereo not drawn) | -16.3 |
| CCN1CCN(CCOc2cccc(Cl)c2Cl)CC1.O=C(O)C(=O)O | -3.27 |
| COc1ccc2c(c1OC)C(=O)N(c1ccc(C)c(C)c1)C2=O | 7.8 |
| CC1CCC(C(=O)NC(C(=O)NCCc2ccc(S(N)(=O)=O)cc2)C(C)C)CC1 (stereo not drawn) | -3.08 |
| COc1ccc(N=C2SCCCN2C)cc1.I | 11.7 |
| O=C(CN1C(=O)NC2(CCOc3ccccc32)C1=O)Nc1ccc(Br)cc1F (stereo not drawn) | -8.21 |
| CCN(CC)C(=O)CCCOc1ccc(Cl)cc1Cl | -3.88 |
| COc1ccc(-c2nc(N)nc(C(F)(F)F)c2-c2ccccc2OC)c(O)c1 | -0.92 |
| Cc1cccc(-n2c(C)cc(/C=N\NC(=O)c3cccs3)c2C)c1 | 7.32 |
| Cc1[nH]n2cnnc2c(=O)c1Br.O=S(=O)(O)O | 23.1 |

| Compound | hERG current change (%, negative = inhibition) at 10uM [%] |
| --- | --- |
| COc1ccccc1CNC(=O)C1CCN(S(=O)(=O)c2cccc([N+](=O)[O-])c2)CC1 | -3.34 |
| CC(=O)c1cccc(NC(=O)c2cc(Cl)sc2Cl)c1 | 5.28 |
| O=C(Nc1ccc(NC(=O)c2cccs2)cc1)c1ccco1 | 4.64 |
| COc1ccc(CNC(=O)CN2CCN(S(=O)(=O)c3cccs3)CC2)cc1OC | 1.64 |
| CN1CCCC(C(=O)C(C#N)c2ccccc2)C1 (stereo not drawn) | 12.4 |
| Cc1cccc(CC(=O)OCn2nnc3ccccc3c2=O)c1 | -25.1 |
| O=C(c1ccc2c(c1)OCO2)N(c1ccc(Br)cc1)C1C=CS(=O)(=O)C1 (stereo not drawn) | -32.4 |
| Oc1cc(O)cc(/C=C/c2ccc(O)cc2O)c1 | 10.2 |
| COCCN1CN(S(=O)(=O)c2cccc(Cl)c2)c2nc3ccccc3nc21 | -27.8 |
| COc1ccc(S(=O)(=O)N2CCN(C(=O)c3ccc(NC(C)=O)cc3)CC2)cc1 | -1.75 |
| COc1ccc(N2C(=O)CC(c3ccccc3)C2=O)cc1 (stereo not drawn) | 14.3 |
| COc1ccc(N2C(=O)C3C4c5ccccc5C(C=Nc5ccc(C)cc5C)(c5ccccc54)C3C2=O)cc1 (stereo not drawn) | 5.61 |
| O=C(Cn1nnc2ccccc2c1=O)Nc1ccc2c(c1)CCC2 | -16 |
| CCN(CC(=O)Nc1ccc(OC)c(OC)c1)S(=O)(=O)c1ccc(C)cc1 | 10.4 |
| CCC(C(=O)NC1CCCCC1)n1c(SCc2ccc(F)cc2)nc2ccncc21 (stereo not drawn) | -9.8 |
| O=C(CSCC(=O)Nc1nccs1)Nc1ccccc1 | 2.45 |
| O=C(CCCOc1ccc(Cl)cc1)N1CCCCCC1 | -10.1 |
| CSc1ccc(S(=O)(=O)NCc2ccc(C)cc2)cc1 | -0.0441 |
| COc1cccc(NC(=O)N2CCCC2C(=O)NC2CCCC2)c1 (stereo not drawn) | -1.51 |
| NS(=O)(=O)c1cccc(NC(=S)NC(=O)C23CC4CC(CC(C4)C2)C3)c1 | -16.7 |
| Cc1ccc(C(C)C)c(OCCCN(C)Cc2ccccc2)c1.O=C(O)C(=O)O | -1.11 |
| CCCN(CCC)C(=O)COc1cc(=O)n(CC)c2ccccc12 | 0.179 |
| CCNC(=O)NC(=O)C(C)Sc1nnc(COc2ccccc2Cl)o1 (stereo not drawn) | -3.35 |

| Compound | hERG current change (%, negative = inhibition) at 10uM [%] |
| --- | --- |
| COc1ccc(S(=O)(=O)N2CCOCC2)cc1NC(=O)CCCOc1ccc(Cl)cc1C | 7.86 |
| CCCCc1c(C)[nH]c2nc3ccccc3n2c1=O | -0.057 |
| O=C1CCc2cc(S(=O)(=O)Nc3ccccc3)cc3c2N1CCC3 | -6.16 |
| Cc1nnc(SCc2nc3ccccc3s2)n1-c1ccccc1 | 2.82 |
| CC(C)C(NC(=O)C12CC3CC(CC(C3)C1)C2)C(=O)N/N=C/C1=C(N2CCOCC2)C(=C\c2ccc([N+](=O)[O-])cc2)/CC1 (stereo not drawn) | -5.32 |
| CCOC(=O)C1CN(S(=O)(=O)c2ccc(OC)cc2)c2ccccc2O1 (stereo not drawn) | 10.2 |
| Cc1cccc(-c2noc(CN(C)C(=O)COc3ccccc3)n2)c1 | -43.4 |
| Clc1ccc(OCCCn2cncn2)cc1Cl | -12.2 |
| COc1ccc(S(=O)(=O)N2C(=O)/C(=C3\SC(N)=NC3=O)c3ccccc32)cc1 | 4.47 |
| Cc1sc2ncnc(SCC(=O)Nc3ccc(CN4CCCC4)cc3)c2c1C | -72.6 |
| CC1(C)CC(NC(=O)c2ccc(Cl)cc2)CC(C)(C)N1 | -1.6 |
| Cc1ccc(C(=O)C[n+]2cc(-c3ccccc3)n3c2CCCCC3)cc1.[Br-] | -11.3 |
| Cn1nc(C(F)(F)F)c(C#N)c1N1CCN(c2ccc(F)cc2)CC1 | -21.6 |
| CCOc1cc(CNC(C)C(O)c2ccccc2)cc(Cl)c1OCC.Cl (stereo not drawn) | 20.2 |
| CCn1c(=O)c2cc(C(=O)NCCN(C)C)sc2c2ccccc21 | 10.8 |
| O=C(Cn1ccc2ccccc2c1=O)NCCC(=O)Nc1ccc(F)cc1F | 1.82 |
| Cc1cc(C)c(C2=NOC(O)(C(F)(F)F)C2)c(=O)[nH]1 (stereo not drawn) | 4.8 |
| O=[N+]([O-])c1cccc(C2=NC(c3ccccc3)CO2)c1 (stereo not drawn) | -5.85 |
| COc1ccc(Nc2cc(C)nc3ncnn23)c(OC)c1 | 12.9 |
| Cc1sc2nc(CSc3nc4ccccc4s3)[nH]c(=O)c2c1C | -4.54 |
| Cc1onc(-c2ccccc2Cl)c1C(=O)Nc1cccc(S(=O)(=O)NC2=NCCC2)c1 | -18.6 |

— publication PMC4336329 (PLoS ONE, 2015)
